From patent publication US20230080534A1, “SEMG2 ANTIBODY AND USE THEREOF” (SHANGHAI BIOTROY BIOTECHNIQUE CO., LTD., priority 2020, published 2023)

Tests used:
SEMG2(497-509) fragment = molecular target: T1, SEMG2(497-509) fragment (Homo sapiens, UniProt Q02383); test: ELISA binding of antibodies to SEMG2(497-509) epitope
T1 construct: SEMG2(497-509) fragment and SEMG2(563-574) fragment were immobilized on the ELISA plate; made in house; host or cells: chemical synthesis
Experimental: Specifically, SEMG2 full-length protein (1-582), SEMG2(354-403) fragment, SEMG2(442-453) fragment, SEMG2(497-509) fragment and SEMG2(563-574) fragment were immobilized on the ELISA plate, and the same concentration of antibodies (MM02, MM05, MM07, MM08, MM13, MM14, HPA042767 and HPA042835) were added. Anti-mouse or anti-rabbit secondary antibodies were then used to detect the corresponding bound antibodies. MM02, MM05, MM07, MM08, MM13, and MM14 all bound to SEMG2(497509) epitope, HPA042767 bound to SEMG2 (354-403) epitope, and HPA042835 bound to […], while none of the antibodies bound to SEMG2 (442-453) control fragment.
Specifically, the preparation of polypeptide antigens and the screening of human natural antibody library were firstly performed. The SEMG2(497-509) polypeptide was synthesized and coupled to BSA and KLH, respectively, and screened in a fully human phage display antibody library. ELISA was used to select clones that bind to antigenic epitopes for preliminary screening. […] The binding ability and blocking function tests were performed after purification, that is, the effect of the antibody on binding between SEMG2 and CD27 was determined by the ELISA experiment.

[1] = molecular target: T2, binding between SEMG2 and CD27 (Homo sapiens, UniProt Q02383); test: Antibody blocking ELISA of SEMG2 binding to CD27-Fc; conditions: antibody 10 μg/mL
T2 sequence (Q02383 24-582): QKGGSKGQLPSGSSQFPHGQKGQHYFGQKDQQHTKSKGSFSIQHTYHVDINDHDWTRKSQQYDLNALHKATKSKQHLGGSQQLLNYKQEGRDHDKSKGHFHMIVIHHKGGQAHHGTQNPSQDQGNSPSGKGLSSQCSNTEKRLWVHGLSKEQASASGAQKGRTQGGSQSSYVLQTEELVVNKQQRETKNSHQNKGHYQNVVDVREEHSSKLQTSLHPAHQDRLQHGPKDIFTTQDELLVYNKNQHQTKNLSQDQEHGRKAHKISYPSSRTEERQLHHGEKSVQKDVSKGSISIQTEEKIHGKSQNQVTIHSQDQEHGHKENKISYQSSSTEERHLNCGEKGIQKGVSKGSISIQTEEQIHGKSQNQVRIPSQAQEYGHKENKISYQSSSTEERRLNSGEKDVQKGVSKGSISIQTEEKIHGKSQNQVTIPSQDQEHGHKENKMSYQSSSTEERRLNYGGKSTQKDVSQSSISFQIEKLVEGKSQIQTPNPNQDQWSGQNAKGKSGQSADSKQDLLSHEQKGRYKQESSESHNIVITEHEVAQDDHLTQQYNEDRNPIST
Excerpt: Because SEMG2 (497-509) sequence fragment is the key epitope of SEMG2 binding to CD27, and has a relatively short sequence, so SEMG2 (497-509) was used as an immunogen to prepare antibodies, which is theoretically easier to obtain functional antibody molecules with the function of blocking the binding between SEMG2 and CD27 than using full-length SEMG2 to prepare antibodies. For direct comparison, the differences in effective concentration of producing antibody by the two methods were verified using ELISA in the examples. Antibodies produced with SEMG2 (497-509) as immunogen and antibodies produced with full-length SEMG2 were added into the enzyme-linked immunosorbent assay (ELISA) reaction system at different concentrations (10^-2, 10^-1, 10^0, 10^1, 10^2, 10^3, 10^4 μg/mL), and the ELISA binding values were measured. […] (5) After washing with PBST for 5 times, 20 min after developing with chromogenic agent, the A450 absorption value was read using the microplate reader. […]
Further, the effects of different antibodies on the binding between SEMG2 and CD27 were compared under the condition of the same antibody concentration. In the ELISA, the same concentration (10 μg/mL) of antibody was used, and the strength of the binding between SEMG2 and CD27 was measured. […]

[2] = test system: A375 human melanoma cells; test: Tumor cell killing by activated PBMC, caspase-3/7 apoptosis; type: cell-based; conditions: A375, SEMG2-positive, co-culture with activated PBMC 10:1
Experimental: (§1) To test the above hypothesis, the effects of different epitope-specific antibodies on tumor cell killing by activated PBMC were compared. Specifically, A375 human melanoma and LOVO human colorectal cancer cells highly expressing SEMG2 were seeded in 96-well plate. Human peripheral blood mononuclear cells (PBMC; #70025, Stem Cell) were activated with 100 ng/mL of CD3 antibody, 100 ng/mL, of CD28 antibody, and 1.0 ng/mL of IL2 (#317303; #302913; #589102, BioLegend), respectively, and co-cultured with the above tumor cells at a ratio of 10:1 in presence of fluorescent caspase-3/7 substrate (#4440, Essen Bioscience). After 1.0 hours, cells were observed under fluorescence microscope.
(§2) To verify the above hypothesis, tumor cells with high SEMG2 expression (A375, LOVO) and SEMG2-negative tumor cells (DLD1, NCM460 and NCI-H1975) were selected. Different antibodies (irrelevant mouse IgG antibodies, MM02 or MM05 antibodies) were added during the PBMC killing experiments for the tumor cells.
(§3) To verify the effect of the human antibodies on the function of activated PBMC on tumor cell killing, A375 and LOVO cells were co-cultured with activated PBMC, and H88-93, H88-96, or H88-67 antibody was added at the same time, and the apoptosis ratio of tumor cells were detected.

[3] = test system: LOVO human colorectal cancer cells; test: as above; type: cell-based; conditions: SEMG2-positive, co-culture with activated PBMC 10:1
Experimental: as §1, §2, §3

B1: H88-67: fully human antibody from phage library against SEMG2(497-509), VH SEQ ID NO:56, VL SEQ ID NO:59 (antibody, V domains shown)
VH: QVQLLESGGGVVQPGRSLRLSCAASGFTFSSYAMHWVRQAPGKGLEWVAVISYDGSNKYYADSVKGRFTISRDNSKNTLYLQMNSLRAEDTAVYYCARMDGSGSPDYWGQGTLVTVSS
VL: [about 100 residues left out here]PAFGQGTKVEIK
modifications: UNSURE (1)..(118) VH; UNSURE (1)..(112) VL
In the case of B1, the “binding to SEMG2(497-509) epitope” value (SEMG2(497-509) fragment) is reported as “bind”, the “effect on the binding between SEMG2 and CD27” value [1] is reported as “inhibited the binding” and the “apoptosis tumor cell ratio / killing by activated PBMC” value [2] is reported as “significantly promote the killing”. The “apoptosis tumor cell ratio / killing by activated PBMC” value [3] was “significantly promote the killing”.
